# Measured values: PubChem BioAssay AID652104 (National Center for Advancing Translational Sciences (NCATS), 2013)
# The campaign covered roughly 410,000 compounds. About 7,200 (1.8%) were called active. This list was built around the results that the source calls inconclusive (neither active nor inactive); the mix of calls is not that of the screen. Calls come from the whole dose curve; as a rule, active = well fitted activation curve with a large enough effect; inconclusive = small, poorly fitted or top-dose-only effect, or another doubt; inactive = no such curve, though single readings can be large or run the other way. Potencies of inconclusive entries are left out as doubtful fits.
# Assay: qHTS of TDP-43 Inhibitors; note: nearly all actives have a fitted effect of over 50% in size; for growth rescue (activation): % of control where 0% means no effect
# Settings: TDP-43 expressing yeast growth rescue, BacTiter-Glo, 24 h; growth rescue (activation): at 46.1 µM (top of the series) unless noted
# Procedure, shortened: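 Yeast cells expressing TDP-43 under galactose induction are exposed to compounds for 24 hr at 30 deg C. BacTiter-Glo luminescence measures growth, so protective compounds score as activators.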
# Potency is the fitted concentration of half-maximal effect; tags give direction and shape of the fitted curve.
Compound,Potency,growth rescue (activation)
CC(C)C1C(=O)N(Cc2cn(CCC3OCCO3)nn2)CCS(=O)(=O)N1Cc1ccc(-c2ccc(F)cc2Cl)cc1 (centres undefined),active: 22.4 µM,–
Cc1cccc(NC(=S)N=Nc2c(O)[nH]c3ccccc23)c1,"inconclusive [activator, partial curve]",–
CCC(=O)N1CCc2cc(Br)cc(S(=O)(=O)NCc3ccc(Cl)cc3)c21,inactive,–
CCOC(=O)c1ccccc1Oc1c(F)c(F)nc(NCCO)c1F,inactive,–
Clc1ccc(N/N=C/c2ccncc2)cc1Cl,"inconclusive [activator, single point]",–
CCCOC(=O)c1ccc(NC(=O)Cc2csc(C)n2)cc1,inactive,–
COc1ccc(Cc2nnc(SCC(=O)c3ccccc3)o2)cc1,"inconclusive [activator, single point]",–
Cc1ccc(SCC(=O)Nc2ccc3c(c2)C(=O)N(C)C3=O)cc1,"inconclusive [activator, partial curve]",–
CCOC(=O)c1sc(NC(=O)c2cc(CC)on2)c(C(=O)OCC)c1C,"inconclusive [activator, full curve, poor fit]",–
Nc1nc2c(ncn2[C@@H]2O[C@H](CNC(=O)[C@H](N)Cc3ccccc3)[C@@H](O)[C@H]2O)c(=O)[nH]1,inactive,–
CCCCn1c(NCc2ccccc2O)nc2ccccc21,"inconclusive [activator, full curve, poor fit]",–
Cc1ccc(OCC(=O)Nc2cccc3ccccc23)c([N+](=O)[O-])n1,"inconclusive [activator, single point]",–
COCCCNC(=O)CSc1c2c(nc3ccc(Cl)cc13)CCCC2,–,inconclusive: 30.7% [activator]
COc1ccccc1-n1c(C)nnc1SCC(N)=O,"inconclusive [activator, single point]",–
CC(=O)C1=C(C)NC(SCC(=O)c2cc(Cl)ccc2Cl)=C(C#N)C1c1ccco1 (centres undefined),inactive,–
CNC(=O)c1nnsc1S(=O)c1ccc(Cl)cc1 (centres undefined),"inconclusive [activator, single point]",–
Cc1cc(C)cc(-n2ccn(CC(=O)Nc3ccccc3C(F)(F)F)c(=O)c2=O)c1,inactive,–
CC1(c2ccccc2)CC(C)(C)N2C(=O)Cc3cccc1c32 (centres undefined),"inconclusive [activator, single point]",–
O=C1CC(c2nc3ccccc3n2CCCOc2ccccc2)CN1c1ccc(F)cc1 (centres undefined),inactive,–
CC(=O)C(Sc1nnnn1-c1ccc(O)cc1)c1ccccc1 (centres undefined),"inconclusive [activator, partial curve]",–
O=C(Nc1nnc(SCc2ccccc2F)s1)c1ccco1,"inconclusive [activator, partial curve]",–
O=C(NCc1cccc(C(F)(F)F)c1)C1CC(c2c(Cl)cccc2Cl)=NO1 (centres undefined),"inconclusive [activator, single point]",–

Compound,Potency,growth rescue (activation)
CCOC(=O)c1c(NC(C)=O)sc2c(O)cccc12,inactive,–
Cc1ccc(Cl)cc1NC(=O)COC(=O)CC(C)(C)C,"inconclusive [activator, single point]",–
O=C(Cn1cc(SCc2cccc(F)c2)c2ccccc21)N1CCOCC1,"inconclusive [activator, partial curve, poor fit]",–
CCOC(=O)C(/C=N/c1cc(C)nn1-c1ccccc1)=C(\C)O,"inconclusive [activator, partial curve]",–
CCOc1ccc(NC(=O)CSc2nnc(-c3ccccn3)n2C)cc1,–,inconclusive: 36.4% [activator]
Cc1cc(C)n(-c2ccc(Cl)c(C(=O)OCC(=O)N3CCCCC3C)n2)n1 (centres undefined),–,inconclusive: 0% [activator]
COC(=O)c1[nH]c2ccccc2c1NS(=O)(=O)c1ccc(OC)cc1OC,"inconclusive [activator, full curve, poor fit]",–
Cc1nc(-c2cccc(NC(=O)C3CCCCC3)c2)cs1,"inconclusive [activator, single point]",–
CCOC(=O)c1c(SCC(=O)Nc2nc3ccc(C)cc3s2)nc(=O)[nH]c1C,inactive,–
CCCn1cnc2c(SCc3ccccc3Cl)nc(N)nc21,"inconclusive [activator, single point]",–
Cc1ccc(OCC(=O)Nc2ccc3nc(SCC(=O)N4CCCC4)sc3c2)cc1,"inconclusive [activator, single point]",–
Cc1ccc(C)c(S(=O)(=O)c2cn(Cc3ccccc3)c3cc(F)c(F)cc3c2=O)c1,"inconclusive [activator, full curve, poor fit]",–
O=C(c1cccc([N+](=O)[O-])c1)N1CCc2ccccc21,"inconclusive [activator, full curve, poor fit]",–
CCC(=O)Nc1cccc(-c2cnc3ccccc3n2)c1,"inconclusive [activator, partial curve]",–
CCOc1ccc(N(c2nc(-c3ccc(OC)c(OC)c3)no2)c2nc(-c3ccc(OC)c(OC)c3)no2)cc1,"inconclusive [activator, single point]",–
CCOC(=O)c1cnc2ccc(C)cc2c1Nc1ccc(OCc2ccccc2Cl)cc1,active: 22.4 µM,–
COc1ccc(C(=O)O/N=C(\N)Cc2ccc(Cl)cc2)cc1OC,"inconclusive [activator, partial curve]",–
O=C1NCCOC(=O)[C@@H](Cc2ccc(F)cc2)CC/C=C/C[C@@H]1CC(=O)N(CCO)Cc1ccccc1,inactive,–
CCOc1ccc(NC(=S)N2CCc3cc(OC)c(OC)cc3C2COc2ccc3c(C)cc(=O)oc3c2)cc1 (centres undefined),"inconclusive [activator, full curve, poor fit]",–
CN(C)C(=N)N=C(N)N,"inconclusive [activator, full curve]",–
O=C(Nc1ccccc1N1CCOCC1)c1cnccn1,"inconclusive [activator, partial curve]",–
CCOC(=O)C1CCCN(C(=O)c2cc(-c3ccc(C)cc3)nc3ccccc23)C1 (centres undefined),"inconclusive [activator, single point]",–
